Test results as given in the RNAGym collection of RNA variant scans (doi:10.1073/pnas.2313332121).
Variants at the floor of the assay are shown more often than the library holds them.

B1: TPR 5TU (parent)
chain: GGAUCUUCUCGAUCUAACAAAAAAGACAAAUCUGCCACAAAGCUUGAGAGCAUCUUCGGAUGCAGAGGCGGCAGCCUUCGGUGGCGCGAUAGCGCCAACGUUCUCAACUAUGACACGCAAAACGCGUGCUCCGUUGAAUGGAGUUUAUCAUG

Variants of: B1
Test: polymerase ribozyme fitness, log enrichment relative to wild type (log ratio); higher = more active; in vitro selection for triplet polymerase activity
In short: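 Each subunit of a heterodimeric triplet polymerase ribozyme was mutagenized into a library by PCR, transcribed, and subjected to one round of in vitro selection, run in triplicate. Libraries were annealed with a biotinylated primer, the partner subunit and triplets, incubated frozen at −7 °C, and extended constructs were gel-excised, captured on streptavidin beads and recovered by RT-PCR. Input and output libraries were sequenced on Illumina, keeping genotypes with ≥10 input reads and ≥1 read per output. Fitness is log base 2 of genotype enrichment divided by wild-type enrichment, from inverse-variance-weighted replicate averages.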

Polymerase ribozyme fitness (log ratio), ≤ -4.2:
A39C G88C C132A
C38U U55A G70C U78C G84U U102G U134A
A39C C75G C85U G124A
C38U A73U A138C U148A
A39C A47U U148G
A39C U55A C76U C87G
C38U A66G G92U C108A G136U
A39C G50U G71C G86C G112A G136U
A39C C54A C72U C85G
A39C G58A A60C A91U G92A C116U A122G
A39G C85G A89C G92C C95U G124C
A39G A49C C51A A120C
A39C C43G C57U G126C
C38U U82A A91G C105G
A39G C54A C87A A122U C125G
A39C C87U G94U U101C A147U
C38U C43U U44A C51U C93U
C38U A98U C99G A106C C149G
C38U A64C G83A A122C
A39G C75U C85A C129U A142U
A39C C54U G71A G83U U109C A119U
C38U G74A C95U A121U U139A
C38U A66U A73C C96A
C38U G84U A91U
C38U G62C C69A G88U C116A
A39C U45A G58A G80C G84U C95U C108A
A39C G42A C87G G126A U130A U146G
C38U G84A U139A
C38U U56A U78G G133A G136A
C38U C93A U151A
C38U G42C A142G
A39C U53G U55A G143A U148G
A39C G42U C93U A97U A137U G140C U146G C149A
A39C U56A C72A A119G
A39C C57A C116U U139C G140U
C38U G74A G80C C96G U101C C105G G124U C132G A137U
A39C C75G G83A G88A C123A
A39G A64G G94C A106G U134A U135A
A39G A47U C54G C75U G92C
A39G A41C C75U G86C U104G C108A C123U
A39C C87A C114U
A39C C43A A49C U61A U90G A98U C105U A113U C118U
A39C G133U U148G
C38U C105G G128C
C38U U78G C108U U148A
A39G A47U G86C
C38U G50C C54U G65C C87U C99G
C38U G58U G100C
C38U G94U U151A
A39C C79A A91C U101G G143C
A39G A49C U56A G94C C103A A142C
C38U C79G C87G
A39C A66G G88C
A39C C54A A60C G80U G84A C114A C116G
A39G A41G G46C C51G U56A A60C C72U A97G U111C C125A
C38U A66G C95U G136A
A39C C43U G74A C103G U127A
A39C G71C G83U C95U
A39C C54A U90G A121G A122U C123A G141A
C38U C43U U56A G71C U90G G117A
A39C C87A
C38U A73U U77A C85A C99G G124C A142G
A39C A40G G50C C75A C85G
A39C G46A A64G C76A
C38U G42C A52U U61G G133U
A39G C75G C129U C131A U139C
A39G A91U

Polymerase ribozyme fitness (log ratio), -0.329:
C38U A120U A142U

Polymerase ribozyme fitness (log ratio), -4.08:
C38U C54A C57G G143A

Polymerase ribozyme fitness (log ratio), 0.325:
C38U G117U

Polymerase ribozyme fitness (log ratio), -2.58:
A39G C85U U101C

Polymerase ribozyme fitness (log ratio), -0.0442:
C38U C96A G141A

Polymerase ribozyme fitness (log ratio), -2.12:
A39C C87U

Polymerase ribozyme fitness (log ratio), -1.83:
A39G C54U C85U

Polymerase ribozyme fitness (log ratio), -3.4:
A39G A91G

Polymerase ribozyme fitness (log ratio), -2.88:
C38U C63U A73G C118U A150G

Polymerase ribozyme fitness (log ratio), -1.29:
C38U U61G C85A G94C C123A

Polymerase ribozyme fitness (log ratio), -0.277:
C38U A73G U101A

Polymerase ribozyme fitness (log ratio), -1.44:
A39G A41C

Polymerase ribozyme fitness (log ratio), -2.08:
A39C C105U G124A

Polymerase ribozyme fitness (log ratio), -1.06:
C38U C93U

Polymerase ribozyme fitness (log ratio), -4.04:
A39C G81A G94U A106G A110C G140U

Polymerase ribozyme fitness (log ratio), -3.3:
C38U G62C G94U
